No constants are given. Whether binding was seen depends on the method and setting. For some assays here: Binding seen in cells or lysates may run through a third protein. Some results given as binding are weak or reduced against the parent protein; the word gives no strength.
Columns and labels:
[1] = target: T1, TANK, on the E. coli colony macroarray (human) (UniProt Q92844); assay: peptide or protein array; E. coli colony macroarrays (ImaGenes UniPex, more than 30,000 recombinant human proteins) probed with full-length GST-NEMO; data not shown; only the binder purified
T1 sequence: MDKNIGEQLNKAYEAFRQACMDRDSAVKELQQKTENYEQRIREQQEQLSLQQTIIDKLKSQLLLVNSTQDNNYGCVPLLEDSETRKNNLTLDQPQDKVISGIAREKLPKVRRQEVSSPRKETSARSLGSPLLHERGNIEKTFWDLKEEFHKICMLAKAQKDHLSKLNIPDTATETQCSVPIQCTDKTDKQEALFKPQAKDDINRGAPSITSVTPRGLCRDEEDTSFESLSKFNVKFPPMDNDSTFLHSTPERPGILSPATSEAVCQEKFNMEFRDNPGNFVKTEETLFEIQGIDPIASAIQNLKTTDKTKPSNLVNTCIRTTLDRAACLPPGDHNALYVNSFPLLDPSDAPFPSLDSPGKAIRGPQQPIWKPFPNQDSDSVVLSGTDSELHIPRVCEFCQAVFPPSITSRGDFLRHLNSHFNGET

Chains of the proteins cited; added tags and fusions are not shown.
UniProt Q9UBF6: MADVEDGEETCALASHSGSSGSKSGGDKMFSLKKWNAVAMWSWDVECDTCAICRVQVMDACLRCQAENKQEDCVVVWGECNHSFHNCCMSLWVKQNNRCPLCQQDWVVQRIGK
UniProt P21579: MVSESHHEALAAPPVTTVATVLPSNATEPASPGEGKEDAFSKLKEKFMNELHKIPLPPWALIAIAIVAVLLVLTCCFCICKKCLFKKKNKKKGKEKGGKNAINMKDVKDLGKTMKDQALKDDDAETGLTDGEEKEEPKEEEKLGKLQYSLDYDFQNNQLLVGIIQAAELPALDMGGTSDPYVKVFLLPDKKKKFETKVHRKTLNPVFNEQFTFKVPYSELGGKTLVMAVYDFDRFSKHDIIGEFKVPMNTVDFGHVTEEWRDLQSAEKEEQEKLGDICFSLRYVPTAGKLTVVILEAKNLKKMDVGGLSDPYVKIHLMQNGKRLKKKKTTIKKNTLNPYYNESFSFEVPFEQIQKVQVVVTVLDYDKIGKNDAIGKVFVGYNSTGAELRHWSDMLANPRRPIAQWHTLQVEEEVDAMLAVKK

[2] = target: Xpress-tagged NEMO (human) (UniProt Q9Y6K9); assay: co-IP; as the other co-IPs (Xpress-tagged NEMO, anti-Xpress, HEK-293T lysate) but binding and washing with 0.1% NP-40; used for SAG
[3] = target: Xpress-tagged NEMO (human) (UniProt Q9Y6K9); assay: co-IP; Xpress-tagged NEMO and partner co-expressed in HEK-293T; anti-Xpress, protein A/G agarose; binding and washing with 0.5% NP-40 (20 mM Tris-HCl pH 7.5, 137 mM NaCl, 0.5 mM DTT, 10% glycerol, 2 mM EDTA), 4°C
GST-NEMO (human) = GST-NEMO (human) (UniProt Q9Y6K9); assay: pull-down; GST or GST-NEMO immobilised; lysates of transiently transfected HEK-293T cells applied; washing, SDS-PAGE, immunoblot; only the target purified
[4] = target: NEMO, mammalian two-hybrid fusion (human) (UniProt Q9Y6K9); assay: two-hybrid; mammalian two-hybrid, CheckMate/Flexi system (Promega) in HEK-293T; pFN10A (activation domain) and pFN11A (binding domain); firefly/Renilla luciferase; partner/NEMO compared with partner/empty vector

Row | Substance | binding [3] | binding (GST-NEMO (human)) | binding [4] | also measured
1 | GST-NEMO (from UniProt Q9Y6K9 1-419) |  |  |  | binding [1]: binds
2 | SAG (sensitive to apoptosis gene 1), expressed in HEK-293T (from UniProt Q9UBF6 1-113) | no binding (condition: with 0.5% NP-40) | binds |  | binding [2]: binds
3 | SAG, mammalian two-hybrid fusion (from UniProt Q9UBF6 1-113) |  |  | binds | 
4 | SYT1, mammalian two-hybrid fusion (from UniProt P21579 1-422) |  |  | binds | 
5 | SYT1-FLAG (from UniProt P21579 1-422) | binds | binds |  | 

From article PMC2808332
